# Source: article PMC13083723 (Patterns, 2026)
# Screen size: about 5,400 compounds; about 190 (3.5%) showed an effect of 50% or more. The list shows a part of the results.
# Tested on: Vero-E6
# Experiment: primary screen, phospholipidosis by LipidTOX staining; higher = more effect of the substance
# Conditions: 10 µM
# Outline: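 Drug-induced phospholipidosis detected with HCS LipidTOX Red reagent in Vero-E6 cells. Compounds tested at 10 μM, with amiodarone (10 μM) as positive control and DMSO (0.1 v/v %) as vehicle.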
row,SMILES,result_ITMP [%]
1,O=C(O)Cc1cc2ccccc2nc1C(=O)O,1.45
2,N#Cc1nn(-c2c(Cl)cc(C(F)(F)F)cc2Cl)c(N)c1S(=O)C(F)(F)F (stereo not shown),-3.47
3,Cc1cccc(C)c1OCC(=O)N[C@@H](Cc1ccccc1)[C@@H](O)C[C@H](Cc1ccccc1)NC(=O)[C@H](C(C)C)N1CCCNC1=O,-3.25
4,CSCC[C@H](NC(=O)[C@H](Cc1ccccc1)NC(=O)CNC(=O)CNC(=O)[C@@H](N)Cc1ccc(O)cc1)C(=O)O,-5.97
5,CNCc1ccc(C)c(NC(=O)c2ccc(Nc3nc(-c4ccccc4)c4ccccc4n3)cc2)c1,67.4
6,O=C1CNC(=O)CN1,-1.53
7,O=C1Nc2ccc(Cl)cc2[C@@](C#CC2CC2)(C(F)(F)F)O1,-4.09
8,C[C@]12CCC(=O)C=C1CC[C@@H]1[C@@H]2[C@@H](O)C[C@]2(C)C(=O)CC[C@@H]12,-4.8
9,NCC(O)c1ccc(O)cc1 (stereo not shown),-3.77
10,c1ccc2sc(N3CCN(Cc4ccc5c(c4)OCO5)CC3)nc2c1,-3.98
11,CC(C)=CCC[C@](C)(O)[C@H]1CC[C@]2(C)[C@@H]1[C@H](O)C[C@@H]1[C@@]3(C)CC[C@H](O)C(C)(C)[C@@H]3[C@@H](O)C[C@]12C,-1.48
12,O=C(O)C1(c2ccc(-c3ccc(Cl)c(Cl)c3)c(F)c2)CC1,2.46
13,Cn1nccc1Nc1nccc(-c2ccn([C@H](CO)c3ccc(Cl)c(F)c3)c(=O)c2)n1 [R4A_0003897_001 / SPE_A20830788],1.66
14,CNCC/C=C/c1cccnc1,-4.64
15,Cc1ncc(CO)c(CN)c1O,1.44
16,O=c1[nH]c(CCl)nc2sc3c(c12)CCCC3,-2.42
17,O=C1c2cccc(O)c2C(=O)c2c(O)cccc21,-4.59
18,O=c1cc(N2CCOCC2)oc2c(-c3ccccc3)cccc12,-6.91
19,Cc1cc(C)c(NC(=O)N(Cc2ccc3c(c2)Cc2ccccc2-3)C2CCCCCC2)c(C)c1,0.75
20,Nc1ncccc1-c1nc2ccc(-c3ccccc3)nc2n1-c1ccc(C2(N)CCC2)cc1,91.9
21,O=C(O)C1CN(CCCP(=O)(O)O)CCN1 (stereo not shown),-1.3
22,CCOC(N)=O,-6.37
23,O=C1Nc2ccccc2C2(CCN(CCc3ccc(C(F)(F)F)cc3)CC2)O1,6.16
24,CCC(CO)(C(=O)OC1CC2CCC(C1)[N+]2(C)C)c1ccccc1 (stereo not shown),0.66
25,Cc1cnc(NC(=O)Nc2cc(Br)c(C)cc2OC[C@@H]2CNCCO2)cn1,23.3
26,CCCCCN(CCCOC)C(=O)[C@@H](CCC(=O)O)NC(=O)c1ccc(Cl)c(Cl)c1,-0.96
27,N[C@H](C(=O)O)c1ccc(C(=O)O)c(O)c1,-1.24
28,Nc1cc(C(F)(F)F)c(-c2cc(N3CCOCC3)nc(N3CCOCC3)n2)cn1,6.83

row,SMILES,result_ITMP [%]
1,CC(C)NNC(=O)c1ccncc1,-6.05
2,Cc1ccc(Sc2cncc3sc(C(N)=O)cc23)cc1,-2.48
3,CNCC(=O)O,-4.12
4,O=C1S/C(=C\c2ccc(OCc3cccc(B(O)O)c3)cc2)C(=O)N1Cc1ccc(F)cc1,17.3
5,C=CCNc1ncnc2ccc(Br)cc12,-2.54
6,CC(C)=CCC[C@](C)(O[C@@H]1O[C@H](CO)[C@@H](O)[C@H](O)[C@H]1O)[C@H]1CC[C@]2(C)[C@@H]1[C@H](O)C[C@@H]1[C@@]3(C)CC[C@H](O[C@@H]4O[C@H](CO)[C@@H](O)[C@H](O)[C@H]4O[C@@H]4O[C@H](CO)[C@@H](O)[C@H](O)[C@H]4O)C(C)(C)[C@@H]3CC[C@]12C,-0.31
7,C[C@]12CC[C@H](O)C[C@H]1CC[C@@H]1[C@@H]2CC[C@]2(C)[C@@](O)(c3ccoc3)CC[C@]12O,-7.29
8,CCOC(CN1CCN(CC(C)C(=O)c2ccccc2)CC1)c1ccccc1 (stereo not shown),6.42
9,OCC(CO)N[C@H]1C[C@](O)(CO)[C@@H](O)[C@H](O)[C@H]1O,7.39
10,COc1ccc(S(=O)(=O)N2CCC[C@H]2C(=O)Nc2cc(C)cc(C)c2)cc1,-5.81
11,O=C(NCC1CCOCC1)c1cnc(Nc2ccc(Cl)cc2Cl)nc1C(F)(F)F,-8.68
12,Cc1cc(Nc2ncnc3ccc(NC4=NC(C)(C)CO4)cc23)ccc1Oc1ccn2ncnc2c1,-7.95
13,CC1(C)CN2C(CS/C(=N/C3CCCCC3)NC3CCCCC3)=CSC2=N1,49.5
14,Cc1cccc(Oc2nc3c(C)cccn3c(=O)c2/C=C(\C#N)c2nc3ccccc3s2)c1,-2.64
15,COC(=O)[C@@]12OC[C@]34[C@H]([C@@H](O)[C@@H]1O)[C@@]1(C)CC(=O)C(O)=C(C)[C@@H]1C[C@H]3OC(=O)[C@H](OC(=O)/C=C(\C)C(C)C)[C@@H]24,-3.12
16,CCc1ccc(/C=C2/SC(=S)NC2=O)cc1,0.78
17,COC(=O)[C@@H](N)CCCNC(=N)N[N+](=O)[O-],-7.77
18,CCN(CC)CCNC(=O)c1cc(Br)c(N)cc1OC,-5.26
19,CC(C)=CCC/C(C)=C/CC/C(C)=C/CSc1ccccc1C(N)=O,-0.49
20,CC1(C)O[C@@H]2[C@@H](CO[C@@]3(COS(N)(=O)=O)OC(C)(C)O[C@@H]23)O1,-2.52
21,COc1cc(Nc2ncc3c(n2)-c2ccc(Cl)cc2C(c2c(F)cccc2OC)=NC3)ccc1C(=O)O,2.58
22,OC(CCN1CCCCC1)(c1ccccc1)c1ccccc1,3.27
23,CCN(CC)CCNC(=O)c1ccccc1I,-6.63
24,Cc1c(Cl)c(C)[n+]([O-])c(Cl)c1-c1noc(-c2cc(O)c(O)c([N+](=O)[O-])c2)n1,-1.09
25,CCc1cc2c(c(CC)n1)CCC(=O)N2Cc1ccc(-c2ccccc2-c2nnn[nH]2)cc1,-1.67
26,O=C1C[C@@]2(C(=O)N1)C(=O)N(Cc1ccc(Br)cc1F)C(=O)c1cccn12,0.4
27,CCOC(=O)C1=C(C)NC(C)=C(C(=O)OC)C1c1cccc(Cl)c1Cl (stereo not shown),8.19
